# Measurements taken from the supplement of paper PMC11417369.
# ± gives the standard deviation of the averaged measurements. The list shows a part of the results.
# Tested on: PfAP2-I AP2 domain 3 (GST-tagged)
# Test: gcPBM binding intensity (ln(normalized median fluorescence intensity)); higher = stronger DNA binding
# In short: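 The highest Masliner-normalised natural-log median intensity across replicate spots of either probe orientation is reported as binding intensity. GST-tagged P. falciparum DNA-binding domains expressed in E. coli were applied for 1 h to an Agilent 4 × 180k array of primer-extended double-stranded 36-bp intergenic genomic probes plus negative controls, and bound protein was detected with Alexa488 anti-GST antibody and scanned at 488 nm.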
row,Sequence,gcPBM binding intensity (ln)
1,ACAGCTACCAGATACTGTACTTTTCTCCAGACTGCA [XGTACX_site2541],7.94 ± 0.61
2,ATGTGATATAAGTACACACACATATGTATTTATAAC [CACACA_site6942],8.2 ± 0.16
3,ATATACATAATCTTCTTGCACTTTTTTTTTTTTTTT [GTGCAC_site9410],9.47 ± 0.13
4,TATATTTTGTTCTTTCCACACACAAATACATATATT [CACACA_site9348],8.12 ± 0.72
5,ATATACACTTAATTTTTTATAAAAAAAAATTTATAT [CACACA_negctrl_site498],7.66 ± 0.43
6,GTAATAATTTTTTGTAGTACACAAAAATTCATATTT [XGTACX_site2699],8.27 ± 0.23
7,TGCATATACGCAAGCACACATATATATATATATATA [CACACA_site1069],9.52 ± 0.48
8,TTTTGATTTCCTATTGCACACTTTTTTTAAGTTTAT [CACACA_site1056],10.18 ± 0.078
9,TATATATATATATAATGTACATATAATATATTTATT [XGTACX_site7892],9.21 ± 0.33
10,TAAATATATTAATACACACACGATATGTACAAAAAA [CACACA_site540],8.1 ± 0.56
11,GCTTAATGTCATATATCACACATGAAAATATATATA [CACACA_site5089],8 ± 0.55
12,TACGTATTTTAATATTTACACACTTATTTTTTATAT [CACACA_site7924],7.89 ± 0.43
13,GGACAACAAACAAACACACACAAAAAAAAAATAAAA [CACACA_site3791],7.91 ± 0.28
14,TTGTTTCTTTTTTTTTGTACATATATATTGTATATT [XGTACX_site7602],8.03 ± 0.8
15,AATTTTTCAAATTAATGTACTTGTTATAAATTGTAA [XGTACX_site5428],7.54 ± 0.35
16,GGCAATACATAATAATGTACATAATTATATAATATT [XGTACX_site3739],7.71 ± 0.39
17,TATATCTGTTTATATTGTACACATATATATATATAT [XGTACX_site714],9.36 ± 0.61
18,TACAAACACCCATATACACACAAAAAAAAAATAAAA [CACACA_site5421],7.78 ± 0.31
19,AGAAAAACTTATATGATACACACGATAAACAAAATA [CACACA_site1038],7.8 ± 0.6

row,Sequence,gcPBM binding intensity (ln)
1,TATATAATATATATATGTACATATATATATGTTTTT [XGTACX_site3347],7.62 ± 0.23
2,TATACATAAAACAGTTCACACATTGTATGAATATAT [CACACA_site4751],7.53 ± 0.59
3,GTGCAAAATATTTTTACACACAAATTCTTACAACAG [CACACA_site7556],9.98 ± 0.57
4,ATATCTATGTTTATCTCGAATAACTTAAAAAATTAT [CACACA_negctrl_site1131],7.58 ± 0.58
5,TTTATACAAACAACTTTATATTAATGTTTAACGGAG [GTGCAC_negctrl_site396],7.6 ± 0.42
6,AAGGCAAACAAACACACACACATATATACATATATA [CACACA_site2122],8 ± 0.38
7,TCTTTCTAAAGATGTAGTACAAAATAAATATAATAT [XGTACX_site6564],8.07 ± 0.54
8,TAATATGCTCATGTAACACACATTTGCATATTTTTC [CACACA_site1357],7.58 ± 0.53
9,TTATCACACCTTTTTTGTACGAAATAAAAAAAAAAA [XGTACX_site5564],8.19 ± 0.49
10,GATATTATGTGTTTGGTATTTTTTGATGTTGGTAGG [XGTACX_negctrl_site563],8.01 ± 0.35
11,TAGAACAAATAAAACACACACATATAAATATAGATG [CACACA_site7325],7.65 ± 0.73
12,ACATTAAAAAAAAAATGTACATAAATATTTTTCCTT [XGTACX_site4361],7.63 ± 0.65
13,AATTTTATTCATTGAGCACACAAAATAAATTATCAA [CACACA_site9079],8.27 ± 0.43
14,ATCTTTTATATAAAATGTACAGAGTTTGAAAGAATA [XGTACX_site8826],7.8 ± 0.48
15,GTATTACAACGACACACACACCTATATATCATAGTA [CACACA_site7877],8.13 ± 0.57
16,ATACAAATTGTTTAAAGTACAAATTACACCTCTTAA [XGTACX_site6888],7.67 ± 0.68
17,TATATACACATATATAAACACACAAAAAAAAAAAAA [CACACA_site8626],7.95 ± 0.53
18,TGTAAATATATATATACACACACACCGAAGCAATAG [CACACA_site8960],8.33 ± 0.35
19,CATACAGACATACATACACACATACATACAGACATA [CACACA_site6996],7.91 ± 0.37

row,Sequence,gcPBM binding intensity (ln)
1,TAAAAAGGAAGACACACACACACATATATAAATATA [CACACA_site7657],7.72 ± 0.44
2,GTATATCACACATTTGCATGTTGTCAATAGTTTATC [TGCATGCA_site134],8.03 ± 0.66
3,TTTTTTTTTTTTTAAACATGCATATTAATATTATAT [TGCATGCA_site820],7.99 ± 0.64
4,AAAGGCTATCTTATATACTCCTAAAACGCGAACGTA [CACACA_negctrl_site396],7.45 ± 0.64
5,AATATATAAATATTGTGTACTTATTTTTTTATATGT [XGTACX_site4377],7.935 ± 0.049
6,ATAAATTCTATGTATACACACATATAAAATATAGAT [CACACA_site7296],7.91 ± 0.49
7,ATTATATACATATATGCACACAAAAAAATATATATT [CACACA_site8508],9.04 ± 0.12
8,TTTTTTGTTATTAAAAGTACATTATATGCTAGTTAA [XGTACX_site8747],7.79 ± 0.29
9,TTAAAAATATTATGTACACACATTTGAGATATTTGT [CACACA_site6953],7.72 ± 0.59
10,TGAAATAAAATTTATACACACTTGCTAAATGATCAT [CACACA_site4265],7.68 ± 0.62
11,TATCATTAATTTACATGTACATAAATGAATGTTTAT [XGTACX_site5608],7.59 ± 0.38
12,TTCGTAATTTATATCACACACATATATCTATAATAA [CACACA_site7458],8.01 ± 0.53
13,TTATTGCATATTTACACACGTACTAATTTAAACAAG [CACACA_site971],8.79 ± 0.38
14,AGAATATTTAAAAAAGGTACACAAAAACCAAAATAA [XGTACX_site8569],8.09 ± 0.6
15,ATATATGACAAATGTAGTACAAATTATTGTATCATA [XGTACX_site3675],7.67 ± 0.43
16,TATTAATACAGACACACACACACACCCAATAAAATA [CACACA_site243],8.18 ± 0.2
17,ATAAATTCATATATGAGTACTAAAAATATCTTTTTC [XGTACX_site5541],7.61 ± 0.45
18,CAATGGTCATTTAGTTGTACTTAATTTTAAATCAAA [XGTACX_site4075],7.64 ± 0.26
